The source gives no read counts; variants with many changes may rest on few reads.
B1: OR4K15 (parent)
chain: GUUAACGGUCAUAGGCCAUGGAAACUAGGAGCACCAUUUCGCUGCCAGUGAAGAAAUGAACAAAGAAAAUCUGGGCCAGGCAGGCAUCAAAAGAAAUAGUCUUGCGCUCAACCAGAAAGUCUGUAAUCAUUUUAAGGGUA

Variants of: B1
Test: self-cleavage, relative activity (ratio to wild type); higher = more cleavage; in vitro, sequencing; the parent is a self-cleaving ribozyme

Variant | self-cleavage
U9C A55C A116U | 0.3
G7U U19C A22G | 1.46
U9C A13U A68G A89G A110G | 0.48
U9C A23G A86G A111G | 0.03
C6U A54G U57C | 1.02
U9A A90G A92G A96G | 0.47
U9A C16U U43C U72C U87C | 0.13
G7A A11G A52G U102C | 1.21
C6U A118U U131C | 0
U9C A18G A23G A36G G44A A114G | 0.5
U9C A18G U43C | 0.69
A5U G65A A111G | 0.13
U9C A18G A30G U132C | 1.18
G7A A56G A67G | 1.28
G7A A60G A94G U133C | 1.02
G7U U12A A95G A117G | 1.83
C6U A51G U102C C107U A118G | 0.01
U9C A22U A96G | 0.79
A5U U9C A51G A91G A95G U100C | 2.61
U9A A92G A111U U124C | 0.03
U9A U38C A89G A92C A96U | 1.28
C6U A18C A22G | 0.9
U9A A30G G41U | 0.54
U9A G14U A59G | 0.98

Variant | self-cleavage
G7A U19C A82U | 0.16
G8A A30G A51G U72C U127C | 0.26
U9A A24G A68G A116G U127C | 0.34
U9C A27U A33U U120C A129U U131C | 0.83
U9A U103C A117G | 1.17
U9C A18G A54G C112U A118G U122C | 0.01
G8A U43C A64C A126C U132A | 1.06
G7A A24G A56G | 1.18
U9C A33C A54G A55G A59G U72A U100C A135G | 0.27
U9C A33G A62U U102A A116G | 0.2
U9C A24U U38C A94U A117C U132C A134G | 0.43
C6U A18U U38C A52U G74A A98G | 0.17
C6A A63U A89G | 1.42
U9A A64G U70A A117G | 0.79
G7A A67G A89G | 1.29
U9A A86G U108C A117C C121A | 0.01
G8U A24G A125G | 0.47
G7C U108C A129G | 0
G8A U9A U12G U108G A125G | 0.03
U9C A22G A54G A64G A66G U87C | 0.99
C6U A51G A98C | 1.61
U9A A22G A117G | 1.66
G8A A86U U97A C109U | 1.74
G8A U43A U120C | 1.85

Variant | self-cleavage
U9A A64G A66G A78U A82G U100C A118G U127C | 0.11
G8C A55G A140G | 1.53
C6U A47G A66G | 1.16
U9A U57C U87C U131C | 0.24
G7A A30G C46U | 1.26
U9C A22G U43C U100C A116G U122C | 0.65
A5U C10A U19G A82G | 0.48
U9A A66U A111G A125G A134G | 0
G7A A33G A117U | 0.63
G7A A24G A36G U43C A51U U72C G123A A140U | 0.08
G8A A30U A114G U127C | 0.01
U9C A24G A36G A68G A86G U131C | 0.53
U9C A55G U72A A126U | 0.36
U9C A23G A86G | 1.18
U9C A54G U103C U131C | 1.43
A5U U49G A52G U124C | 1.28
C6U U130C G136U | 1.13
U9C A13G A47C A86G A92U A94U | 1.29
G7U A24G A90G A125G | 0.25
G7U A33C U49A | 2.21
U9C A30G A66G U72C A96G | 0.57
C6U U49A U127A | 1.81
U9C A30U A51U U87C | 0.65
U9C A23G A69G A116U A134G | 0.08

Variant | self-cleavage
U9A A52G A114U A117G A118G | 0.06
G8A U37C A66G U87C | 0.42
G7A A22G A96C A126C | 0.56
A5U U39A A69C U100A A125G | 0.57
U9A A69G U72A G75A | 0.14
G8C U9C A33G A140C | 1.53
G7A A18G A22G C88A | 0.12
G7A A62G G136A | 1.42
U9A U37C A114C | 0
G7U U19C U49C | 1.05
U9C A51G A89G | 2.33
G7U U103C U108C A116G U124C | 0
U9C A51G A134G | 0.45
G7A G83U U124A | 0.35
U9C A30G A118G | 0.73
U9A A27C A52U U87C A117G | 1.5
U9C A23G A60G A92G | 0.55
U9C A22G A52G A86G | 0.96
C6U A54G U87C U103C | 0.5
U9C A47G A64G A69G A116G | 0.53
A5U U37C A59G U103C | 0.81
U9A A63G A82G U87A A90G A118G | 0.11
A5U U19C A23U A64G U72A A116G | 0.08
G8A A64G A111G | 0.11

Variant | self-cleavage
U9A U37A A94G | 0.97
U9A A22G U49C | 0.83
A5U U19C U26G A55G A82C U103C A111G A114G | 0.07
G7A A47G U57A A67G | 0.44
G7A A33U A59C A129U U132C | 0.38
G8A A91U A111G A126G U131C U139C | 0.02
A5U U103C G106A A110G A116G U127C | 0.02
G8A U57G A64U A66U U133C | 1.03
U9A G41A A98U U100A | 1.19
U9C A13G U19C A56G | 0.78
U9C A23C U87C | 1.25
G7A A36G G44U | 1.04
U9C A22G A55G A91G | 1.01
G7U A90G A116G U127A | 1.23
U9C A36G A51G A90G U132C | 1.87
A5U U19C U49C A56G A63U A78G A89G A96G | 0.12
U9C A36C A51G | 1.94
U9A A78U A89G | 0.4
U9A A66G A96G | 1.25
U9C A22G A59G A66G U133A | 1.9
A5U U39A G44U U87C U120C | 0.71
U9C A52G A60G | 1.04
G7A A18G A56G A94G | 1.47
U9A U108C A116U | 0

Variant | self-cleavage
U9A U57C A110U U127C | 0.13
U9C A54U A67C A86G U132C | 2.51
G8U U9C G44A A63G A92G A96G | 2.43
G8A U19C A33U G79A A114U | 0.03
A5U G74A G106A U133C | 0.05
U9A U43A A54G A62G | 1.67
C6U A13U A55G A96G | 1.12
U9C A23G A30U U87C U103C | 0.22
U9A A23G U70C A92G | 0.4
U9A A22G A33C U103C | 0.41
G7U A47G G80C A96G | 0.12
U9C A22G A95G | 1.48
U9C A11G A68G A126G | 0.56
U9C A33G U49C A68G U122A | 0.57
U9C A47C A56G A60G A64U G104A U120C | 0.02
U9A U43C A54G U72A U87C | 0.31
U9A A62G G74U | 0.06
G7A U49C A56G U57A A59G | 1.02
G7A A27G A47G G74A A117G U130C | 0.07
U9A A30G U127G | 2.18
U9A A23G A60U G104A | 0.09
U9A U19C A52G A56G | 1.42
U9A A94G U97C | 0.9
G7A U26C U38C A62G A66G A68G | 0.35

Variant | self-cleavage
A5U U39C A47G A54G | 0.44
U9C A33G A67G | 0.99
U9A U26C G31A C34U | 0.81
U9C A55G A82G | 0.83
U9C A18U U49A A59G A60G | 0.61
U9C A23U A33G A78G A91G A114G | 0.05
U9C A36U A55G U102C A126G | 1.98
G8A A64U G115A | 0.28
C6A U19C U100C | 1.39
G7U A67G A118U | 0.35
A5U U37C A111G | 0.01
G7A U9C U12C A23G A64G A78U A116U | 0.09
U9A A59G A95U | 0.79
U9C A54C U72C A96G A114G | 2.53
U9A A18G U43C A47G | 0.67
C6U A116C U130C | 0.05
G8U A63G U70C | 1.9
G7A A54G A91G | 1.5
G7A A66U A126G | 1.1
U9C A52G U103A A135G | 0.77
C6U U26C A94U A116U | 0.59
U9C A36U A126G | 0.76
C6U A59U U108A A126G U131C A140G | 0

Reference: the RNAGym collection of RNA variant scans (doi:10.7554/elife.90254)
